Measured values as given in the supplement of paper PMC10126150.
Values marked as one replicate rest on one cluster of the flow cell; about a third of the high ones do not repeat.

System: ATP
Assay: switch fluorescence ratio, 500 uM ATP over buffer (Cy3 cluster intensity, sum of 5 cycles each) (fold (ratio)); higher = stronger signal-on switching upon ATP binding; sequences stand for … in TCGTCGGCAGCGTCAGATGTGTATAAGAGACAGTTTTTTTTTTTTTTTTTTTTTTTTT…TC
Conditions: aptamer strand: ATP DNA aptamer (quencher-CACCTGGGGGAGTATTGCGGAGGAAGG + anchor), 100 nM annealed; ATP concentration: 500 uM; one replicate
How it was run: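 Per cluster, summed Cy3 intensity from the target cycles was divided by that from the buffer cycles to give the fluorescence ratio, then averaged per switch-domain sequence. Clusters outside 100-1000 RFU were excluded. The Cy3-labelled switching-strand clusters, on a modified Illumina MiSeq flow-cell, were annealed to 100 nM quencher-labelled ATP aptamer and imaged in selection buffer, then after 15 min with 500 uM ATP at 22 °C, for five cycles with NaOH stripping and re-annealing between them.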
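Note: ATP exposure 15 min at 22 °C before imaging.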

ATTTCGTAGA
switch fluorescence ratio: 1.02

TTCTGGCCAC
switch fluorescence ratio: 0.991

GCTAGTA
switch fluorescence ratio: 1.02

AGGCCCAAGT
switch fluorescence ratio: 0.992

AAGCTTGCGG
switch fluorescence ratio: 1.05

TTGGGTGATG
switch fluorescence ratio: 1.05

GTCACGTCTA
switch fluorescence ratio: 0.99

CATAATTTTG
switch fluorescence ratio: 0.963

AAGTGTCCGG
switch fluorescence ratio: 0.962

ATTAAGAAGT
switch fluorescence ratio: 0.995

TTTTGGCAGC
switch fluorescence ratio: 1.08

GGATGGTAAT
switch fluorescence ratio: 1.02

TGCGTCCCAT
switch fluorescence ratio: 0.976

CTGAGTTATT
switch fluorescence ratio: 1.03

ACGGGCGCAA
switch fluorescence ratio: 1.34

GTGTGAAGCG
switch fluorescence ratio: 1.02

TGGTCGATG
switch fluorescence ratio: 1.06

GTAATGACTA
switch fluorescence ratio: 1.05

GTGTTGGCG
switch fluorescence ratio: 1.01

CTTAACGTTT
switch fluorescence ratio: 0.993

TGCCTAATAG
switch fluorescence ratio: 1.04

CCCGAGTCAT
switch fluorescence ratio: 1.06

CACATAAGCC
switch fluorescence ratio: 1.05

GTTCGGGTAA
switch fluorescence ratio: 0.99

TCGAACCATC
switch fluorescence ratio: 1.01

AGCCAGCCTC
switch fluorescence ratio: 1.2

TTCCCCTTA
switch fluorescence ratio: 1.06

GTGTTAGTTG
switch fluorescence ratio: 1.01

AACGTCATCC
switch fluorescence ratio: 1.2

GGTTGCTACG
switch fluorescence ratio: 0.97

GATTCCTTCT
switch fluorescence ratio: 1.07

TCTGTCGTCT
switch fluorescence ratio: 1.06

AACGAATTCT
switch fluorescence ratio: 0.999

AATCGGGTCG
switch fluorescence ratio: 0.967

GGATGTAGTT
switch fluorescence ratio: 1.06

AAGCGGGGG
switch fluorescence ratio: 1.07

AATCTCTTTG
switch fluorescence ratio: 0.996

CGGCAATTAA
switch fluorescence ratio: 3.93

ATGGAGTTTT
switch fluorescence ratio: 1.04

TCTGGTGCCT
switch fluorescence ratio: 1.04

TGCGCATTGG
switch fluorescence ratio: 1.22

TGGATACGTC
switch fluorescence ratio: 0.986

CTTATTGGGG
switch fluorescence ratio: 1.01

AGCTCCTGGC
switch fluorescence ratio: 0.985

ACGGCGACTA
switch fluorescence ratio: 1.13

GCGATACAGC
switch fluorescence ratio: 1.09

AATATCTTCG
switch fluorescence ratio: 1.07

TCGGGCACAT
switch fluorescence ratio: 1.02

CCGGGCGGGT
switch fluorescence ratio: 1.08

TCATTCGCG
switch fluorescence ratio: 1

GGATGAGCTT
switch fluorescence ratio: 0.964

AGGATTGAT
switch fluorescence ratio: 0.977

TACTATACTC
switch fluorescence ratio: 1.29

GAATCTATGT
switch fluorescence ratio: 0.994

TGCCCTCAC
switch fluorescence ratio: 1.04

TACCTTTTTT
switch fluorescence ratio: 1.02

GCAGGAGGA
switch fluorescence ratio: 0.957

TAAAATACTG
switch fluorescence ratio: 1.01

ACAAAGTGCG
switch fluorescence ratio: 1.03

CGAGAAACAT
switch fluorescence ratio: 0.967

AAAGATAAAG
switch fluorescence ratio: 0.981

CATTTCTTTA
switch fluorescence ratio: 0.994

GGCTTTTATA
switch fluorescence ratio: 0.992

CGTTAACGTC
switch fluorescence ratio: 0.991

GGGTGAAACT
switch fluorescence ratio: 0.972

AATTATTTG
switch fluorescence ratio: 1

CACGTGCCTG
switch fluorescence ratio: 1.04

AAATATTTGC
switch fluorescence ratio: 1

AACAACTCTT
switch fluorescence ratio: 1.02

CGTTTCGCGG
switch fluorescence ratio: 1.03

CCCATCCCTT
switch fluorescence ratio: 1.04

ATATAGACTC
switch fluorescence ratio: 1.05

CTGCCAGCCG
switch fluorescence ratio: 1.06

ATGCAGGGCA
switch fluorescence ratio: 0.95

AACGTGTTTA
switch fluorescence ratio: 1.05

CAAAATGGAT
switch fluorescence ratio: 0.993

GGTAACTGAT
switch fluorescence ratio: 1.02

TGCAGTGGCG
switch fluorescence ratio: 0.968

CTCATCGTGC
switch fluorescence ratio: 1.14

ATTTGGAGAA
switch fluorescence ratio: 1.01

GGGTGATTG
switch fluorescence ratio: 1.03

ATCAGGGTTG
switch fluorescence ratio: 0.98

GTGTTTGACC
switch fluorescence ratio: 0.977

ATGCATCA
switch fluorescence ratio: 0.982

GGGACACCTC
switch fluorescence ratio: 0.95

AAGATCCGTG
switch fluorescence ratio: 0.949

CCATCCGACT
switch fluorescence ratio: 1.16

TATATGGAGT
switch fluorescence ratio: 0.962

CAGCGACTG
switch fluorescence ratio: 1

AAGGCAAGG
switch fluorescence ratio: 0.986

AGGTTAGCAT
switch fluorescence ratio: 0.976

ATGTCGGTGC
switch fluorescence ratio: 0.979

CGTACGGCTG
switch fluorescence ratio: 1.09

AGGGTCCTCT
switch fluorescence ratio: 1.02

GTCATCCGTT
switch fluorescence ratio: 0.996

CCGTTGACGT
switch fluorescence ratio: 1.08

TTAGTCCACG
switch fluorescence ratio: 1.01

TAGATATGCC
switch fluorescence ratio: 1.03

TCCCAGACAC
switch fluorescence ratio: 1.14

ACGGGGCATA
switch fluorescence ratio: 1.1

ATAGGTTAGT
switch fluorescence ratio: 1.05

CGGAGTACGC
switch fluorescence ratio: 1.32

ACAGAGTTTG
switch fluorescence ratio: 1

TAATTGGAAA
switch fluorescence ratio: 1.01

ATGTCTGCTC
switch fluorescence ratio: 1

CAACTTGTTA
switch fluorescence ratio: 0.981

AGAGAATGCC
switch fluorescence ratio: 0.982

TGGACGCTT
switch fluorescence ratio: 1.01

GGAGGCAAAT
switch fluorescence ratio: 1.09

GGAGAGATGC
switch fluorescence ratio: 0.991

CATTTCCTAG
switch fluorescence ratio: 0.975

AGTGCAGCCA
switch fluorescence ratio: 0.995

CCCTTGGGGC
switch fluorescence ratio: 1.13

ACTAGAAAGC
switch fluorescence ratio: 2.64

AGTAGGGTTC
switch fluorescence ratio: 0.956

CAGGAGGCGA
switch fluorescence ratio: 1.04

GACTCAGCAG
switch fluorescence ratio: 1.38

CATTTGGATA
switch fluorescence ratio: 1.01

CGTTCTCTGC
switch fluorescence ratio: 1

GGAAGTTCGT
switch fluorescence ratio: 0.959

CCATGAACCC
switch fluorescence ratio: 1.07

GACGGGGGCC
switch fluorescence ratio: 0.981

GTTATTTAA
switch fluorescence ratio: 0.997

CCCCTCATCT
switch fluorescence ratio: 1.01

ACTAGGCAGC
switch fluorescence ratio: 1.04

ACACACACTT
switch fluorescence ratio: 1.37

GGTTGGAACG
switch fluorescence ratio: 1.01

CTTTATGTGG
switch fluorescence ratio: 0.979

TGCTTAGATG
switch fluorescence ratio: 0.938

CTTGTATCAG
switch fluorescence ratio: 0.943

CCTTTAGTGG
switch fluorescence ratio: 0.97

GAGTGATAGT
switch fluorescence ratio: 1.05

AGGTCGGCGT
switch fluorescence ratio: 0.869

AGTTATGGAC
switch fluorescence ratio: 1.01

AGGTATCGA
switch fluorescence ratio: 1.05

GAAGTCCATC
switch fluorescence ratio: 0.994

GAGAGCAGCA
switch fluorescence ratio: 1.01

TTTTAGTCGC
switch fluorescence ratio: 1.09

GAATTCATGG
switch fluorescence ratio: 0.957

GGATACCTTG
switch fluorescence ratio: 0.987

AGGGGCATC
switch fluorescence ratio: 0.993

ACATGTTCGG
switch fluorescence ratio: 0.979

CTTAGTCGCG
switch fluorescence ratio: 0.98

AGGGGGAAGG
switch fluorescence ratio: 1.03

GAGTGGTGGC
switch fluorescence ratio: 1.05

GAGTGGTTTC
switch fluorescence ratio: 1.04

CACCAACGGG
switch fluorescence ratio: 1.15

ACCTGCACTA
switch fluorescence ratio: 1.37

AACAAATTTA
switch fluorescence ratio: 0.94

GGAAATCGTA
switch fluorescence ratio: 0.991

AATAGTCGAC
switch fluorescence ratio: 1.02

GATTGTGAAC
switch fluorescence ratio: 1.03

CGGAGGAGTT
switch fluorescence ratio: 0.957

TGGGCCAACC
switch fluorescence ratio: 0.989

TTTTATACAA
switch fluorescence ratio: 0.937

TTAACATGA
switch fluorescence ratio: 0.994

GATGGGATCT
switch fluorescence ratio: 0.966

CATTTGATTC
switch fluorescence ratio: 1.03
